This is one part of the list. At the low end of the ranking, values are background and their order means little.
These sequences were tested against SIX1 homeodomain (reference allele) (UniProt Q15475) (assay: universal protein binding microarray). Details: Universal all-10-mer PBM (8x60K, AMADID 030236), 300 nM GST-tagged protein, Alexa Fluor 488 anti-GST; buffer, salt, pH and temperature not stated; high values mean tight binding; most listed sequences are background and not binding sites; double strand, one strand shown.
For GATCAGTA, the binding signal was 0.347 E-score. Sequence AGCCCCAG has a binding signal of 0.0605 E-score. For GAAGTACA, the binding signal was -0.0881 E-score. AATGCTAA showed a binding signal of -0.213 E-score. In the case of CGTTGAGC, the binding signal is reported as -0.0841 E-score. AATTTCGC showed a binding signal of -0.246 E-score. In the case of TAGCACGA, the binding signal is reported as -0.0903 E-score. CAACAGTG was tested, and the binding signal was -0.0138 E-score. Sequence CCGTATAA has a binding signal of 0.226 E-score. Sequence CTAAGTTA has a binding signal of 0.0331 E-score. With CTTACTCC the binding signal was 0.0264 E-score. With AGAAGGAA the binding signal was -0.0959 E-score. AAAGATCA was tested, and the binding signal was 0.234 E-score. Work on AGGGAACC yielded a binding signal of -0.13 E-score. ACTCAACC was tested, and the binding signal was -0.0536 E-score. CGCTCAAC showed a binding signal of -0.0776 E-score. In the case of GGGGATAA, the binding signal is reported as 0.311 E-score. With GGACCTGA the binding signal was -0.255 E-score. Work on CGCTGTTC yielded a binding signal of -0.198 E-score. CCGACTGC showed a binding signal of -0.188 E-score. Sequence GGCGCGAA has a binding signal of -0.0838 E-score. For CAAATTTG, the binding signal was -0.173 E-score. ATCTACGC was tested, and the binding signal was 0.138 E-score. With CCTGCAGG the binding signal was 0.0238 E-score. With AGGGAACA the binding signal was -0.228 E-score. CCGTCTCG showed a binding signal of 0.232 E-score. ACTTAGCA gave a binding signal of -0.197 E-score. In the case of AACGCTTG, the binding signal is reported as -0.164 E-score. Sequence ACCATAGC has a binding signal of 0.0297 E-score. In the case of TCTCGTCA, the binding signal is reported as 0.0727 E-score. In the case of CCCCGCCA, the binding signal is reported as 0.161 E-score. ACCAATAA gave a binding signal of -0.163 E-score. For AACCAATC, the binding signal was 0.0242 E-score. CGCAACAG was tested, and the binding signal was -0.143 E-score. GTATATAA was tested, and the binding signal was 0.245 E-score. In the case of CCAAACCG, the binding signal is reported as -0.0953 E-score. CACGAGAC was tested, and the binding signal was 0.0598 E-score. For GGATGTTA, the binding signal was -0.0502 E-score. CGCTGGAC was tested, and the binding signal was -0.254 E-score. CCCACGGC was tested, and the binding signal was -0.105 E-score. Sequence AAGGGTAG has a binding signal of -0.102 E-score. Sequence ACGCACCG has a binding signal of -0.148 E-score. AGGTCAGA showed a binding signal of -0.128 E-score. In the case of CAAGGGCC, the binding signal is reported as -0.304 E-score. GCCAACGA showed a binding signal of -0.238 E-score. GAAAAAAC was tested, and the binding signal was -0.333 E-score. TAGCCCTA gave a binding signal of 0.0195 E-score. CAAGTCCG showed a binding signal of -0.178 E-score. CGACCATA gave a binding signal of 0.133 E-score. Work on GAATTAAA yielded a binding signal of -0.208 E-score. AGCTAGCC showed a binding signal of -0.14 E-score. With AGAGCTAT the binding signal was 0.00301 E-score. CTTAGTTA gave a binding signal of 0.0232 E-score. Work on ATATGGCG yielded a binding signal of 0.223 E-score. In the case of AAAACGTC, the binding signal is reported as -0.259 E-score. AGGGCATA showed a binding signal of 0.168 E-score. Sequence AAATTAGA has a binding signal of -0.206 E-score. GAAGTGGA was tested, and the binding signal was 0.0844 E-score. Sequence AATCCGCA has a binding signal of 0.204 E-score. For CGGCTAGC, the binding signal was 0.0102 E-score. Work on AAACACTC yielded a binding signal of -0.235 E-score. Work on ACGAATCT yielded a binding signal of -0.0936 E-score. In the case of AAGAATAG, the binding signal is reported as 0.0297 E-score. ACTGACCG showed a binding signal of -0.174 E-score. AATTGACT showed a binding signal of -0.183 E-score. In the case of GGCTGTTA, the binding signal is reported as -0.168 E-score. For AAGATTAC, the binding signal was -0.131 E-score. GCAGAGAA was tested, and the binding signal was -0.159 E-score. For CGAAGCCG, the binding signal was -0.0368 E-score. For TCTGCGAA, the binding signal was -0.28 E-score. Sequence AAAATTGG has a binding signal of -0.257 E-score. For ACACATGT, the binding signal was -0.149 E-score. Work on GCCGTTAA yielded a binding signal of -0.119 E-score. Sequence AAGAGAGG has a binding signal of -0.013 E-score. In the case of GTGCCGAA, the binding signal is reported as -0.142 E-score. AGCCGTCG showed a binding signal of -0.135 E-score. In the case of CGCTTCCG, the binding signal is reported as -0.0888 E-score. Work on ACTCGGGG yielded a binding signal of 0.212 E-score. AATCTCGT showed a binding signal of -0.129 E-score. Sequence TGATGTAA has a binding signal of -0.0238 E-score. Sequence TAGGACTA has a binding signal of -0.0513 E-score. Sequence AGGAACGG has a binding signal of -0.035 E-score. In the case of CATTTCCA, the binding signal is reported as -0.239 E-score. Work on CCTCTCAC yielded a binding signal of 0.125 E-score. Sequence GAAGGAGC has a binding signal of -0.117 E-score. For CTTTGCCA, the binding signal was -0.276 E-score. AGGCGGAG was tested, and the binding signal was 0.0721 E-score. For CTGACTAC, the binding signal was -0.152 E-score. CGTGCTCC gave a binding signal of -0.166 E-score. For AGTCCGGA, the binding signal was -0.0309 E-score. With CGACCAGA the binding signal was -0.00464 E-score. Sequence AAATCAGG has a binding signal of -0.0954 E-score. GACGATAA gave a binding signal of 0.0255 E-score. In the case of CGGCTGCC, the binding signal is reported as 0.103 E-score. Work on ACTTCTCC yielded a binding signal of 0.00191 E-score. AACGGGGC gave a binding signal of -0.116 E-score. AGCATCAT gave a binding signal of 0.126 E-score. CCGCGGTA was tested, and the binding signal was 0.194 E-score. ACAGGACG showed a binding signal of -0.287 E-score. GCTGCGCA gave a binding signal of -0.187 E-score. Sequence ACCCTAAG has a binding signal of -0.00327 E-score. With GTATACAA the binding signal was 0.252 E-score. Work on CCCATGTA yielded a binding signal of -0.000915 E-score. In the case of AACAGCAT, the binding signal is reported as -0.18 E-score. With CGCACCAA the binding signal was -0.221 E-score. With GGATTTGA the binding signal was 0.0254 E-score. Work on AGCGCGCT yielded a binding signal of -0.151 E-score. CCCACCAG gave a binding signal of -0.023 E-score. ATGTCTCA was tested, and the binding signal was 0.2 E-score.

From PMC10668032
